PubChem BioAssay AID2202238 (Ras Initiative Chemistry Research Team, Frederick National …, 2025)
The other results are listed elsewhere or left out. Further columns of the screen follow, without active or inactive calls.

Target: GTPase KRas (Homo sapiens) (UniProt P01116)
Assay: Cysteine mutants labelled by reactive fragments (mass read-out) (AID 2202238)
Design: protein at 5 µM with 500 µM competing thiol for 1.5 h
Details: KRAS G12D cysteine mutants, disulfide tethering, MALDI-TOF labeling, stronger effect = higher value, fragment at 500 µM
[1] = measured here: G60C mutant labeling
[2] = measured here: G75C mutant labeling
[3] = measured here: H94C mutant labeling
[4] = measured here: I36C mutant labeling
[5] = measured here: L120C mutant labeling
[6] = measured here: M67C mutant labeling
[7] = measured here: M72C mutant labeling
[8] = measured here: N26C mutant labeling
[9] = measured here: N86C mutant labeling
[10] = measured here: P121C mutant labeling
[11] = measured here: S122C mutant labeling
[12] = measured here: S136C mutant labeling

Sequence of UniProt P01116 (P01116 whole entry, looked up, the tested form may be a part): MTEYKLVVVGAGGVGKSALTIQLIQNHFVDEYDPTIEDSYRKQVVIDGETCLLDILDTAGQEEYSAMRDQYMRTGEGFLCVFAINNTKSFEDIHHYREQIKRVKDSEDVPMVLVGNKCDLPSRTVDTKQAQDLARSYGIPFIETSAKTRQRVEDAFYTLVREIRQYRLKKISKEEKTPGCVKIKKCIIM

Row | SMILES | percent labeling [1] [%] | percent labeling [2] [%] | percent labeling [3] [%] | percent labeling [4] [%] | percent labeling [5] [%] | percent labeling [6] [%] | percent labeling [7] [%] | percent labeling [8] [%] | percent labeling [9] [%] | percent labeling [10] [%] | percent labeling [11] [%] | percent labeling [12] [%]
1 | COC1(c2cccc(C(=O)NCCS)c2)COC1 | 31.8 | 15.6 | 37.3 | 25.9 | 38.1 | 32.2 | 32.6 | 45.3 | 25.1 | 30.1 | 31.7 | 50.6
2 | CC(F)(F)c1cncc(CNC(=O)CCS)c1 |  | 13.2 | 29.5 | 39.3 | 37 | 38.7 | 24 |  | 18.8 | 34.9 | 34.7 | 47.7
3 | Cc1c(C(=O)NCCS)cnn1CCC(C)C | 40 | 20.6 | 27.2 | 19.9 | 37.6 | 27.9 | 48.5 | 46.3 | 21.4 | 26.3 | 31.8 | 48.8
4 | O=C(CCS)N(Cc1ccccc1)Cc1ccccc1 |  | 16.8 | 23.1 | 14.5 | 27.4 | 23.3 | 38.2 |  | 23 | 20.1 | 16.1 | 39.3
5 | Cn1c(=O)n(C)c2cc(N3CCCCC3)c(NC(=O)CCS)cc21 |  | 7 | 27.9 | 17.2 | 6.2 | 20.1 | 36.2 |  | 13.3 | 6.4 | 6.9 | 18.5
6 | O=C(CCS)N(CCN1CCOCC1)c1ccccc1F |  | 16.1 | 43.3 | 33.6 | 32.3 | 44.2 | 29.9 |  | 19.3 | 34.6 | 35.7 | 57.2
7 | CC(C)CCc1cc(NC(=O)CCS)n[nH]1 |  | 26 | 25.5 | 27.5 | 31.5 | 23.6 | 56.2 |  | 27.6 | 29.8 | 27 | 41.4
8 | Cc1cccn2cc(COc3ccccc3C(=O)NCCS)nc12 | 36.6 | 24.1 | 34.8 | 17.6 | 13.6 | 20.6 | 40.2 | 29.1 | 10.4 | 13.1 | 10.5 | 28.2
9 | O=C(NCCS)c1cnc(-c2cnccn2)s1 | 15.6 | 11.6 | 16.5 | 16.5 | 16.7 | 8.4 | 39.6 | 28.5 | 11.1 | 11.1 | 10.4 | 24.9
10 | CC1(C)C(=O)Nc2ccc(CNC(=O)CCS)cc21 |  | 14.2 | 39 | 41.7 | 32.2 | 46.4 | 26.9 |  | 27 | 29.5 | 30.7 | 51.3
11 | O=C(CN1C(=O)CCOc2ccccc21)NCCS | 34.4 | 15.5 | 35.7 | 28.4 | 55.4 | 38 | 25.9 | 37.2 | 31.2 | 37.3 | 36.4 | 51.7
12 | O=C(CCS)N1CCC(Cn2cncn2)CC1 |  | 12.2 | 23 | 39.9 | 30.1 | 31.8 | 14.6 |  | 24.4 | 32.3 | 35.1 | 50.6
13 | O=C(CCS)NCCc1cc(O)cc(F)c1 |  | 16 | 36.8 | 42.4 | 29.1 | 40.6 | 43.1 |  | 31 | 34.8 | 35.9 | 51.9
14 | Cc1nnnn1C(Cc1ccc(F)cc1)C(=O)NCCS (stereo not drawn) | 54.8 | 29.7 | 37.1 | 36 | 33.4 | 41.4 | 47.5 | 46.5 | 37.2 | 37.8 | 34.4 | 45.9
15 | CN(C)Cc1nc2ccc(NC(=O)CCS)cc2[nH]1 |  | 14.3 | 29.1 | 39.6 | 32 | 38 | 31 |  | 37.4 | 27.1 | 29.4 | 48.6
16 | Cc1nc(C(F)(F)F)ccc1C(=O)NCCS | 36.8 | 15 | 31.4 | 24.6 | 35 | 28.4 | 24.8 | 37.7 | 24.2 | 36.5 | 30.9 | 46.9
17 | O=C(NCCS)c1ccn(C2CCOCC2)n1 | 25.7 | 18.3 | 39.3 | 26.5 | 33.2 | 37.3 | 39 | 43.2 | 24.2 | 30 | 34.7 | 53.2
18 | O=C(NCCS)c1cccc(-n2[nH]c(=O)ccc2=O)c1 | 16.8 | 6.2 | 23.7 | 13.1 | 36.4 | 20.9 | 10.6 | 29.1 | 29.5 | 26.6 | 34 | 25
19 | Cc1cccc2c(=O)n(CCC(=O)NCCS)cnc12 | 36.9 | 18.6 | 31.1 | 32.8 | 34.9 | 42.5 | 39.1 | 38.6 | 23.4 | 37 | 29.7 | 46.5
20 | O=C(CCN1C(=O)COc2ccccc21)NCCS | 31.8 | 7.9 | 25.5 | 23.5 | 29.7 | 31.3 | 14.2 | 28.7 | 19.3 | 32.2 | 23.6 | 42.6
21 | CC(C)(C)OC(=O)N1CCC2(CCN(C(=O)CCS)CC2)CC1 |  | 19.1 | 34.1 | 30.8 | 28.1 | 37.8 | 33.5 |  | 25.4 | 25.5 | 25.4 | 51.8
22 | CN(C)C(C(=O)NCCS)c1ccccc1 (stereo not drawn) | 50.2 | 19.1 | 40.1 | 28.7 | 57.8 | 39.9 | 26 | 40.1 | 31.4 | 34.8 | 32.8 | 61.5
23 | O=C(NCCS)c1cc(C2CCOCC2)[nH]n1 | 32.5 | 20.9 | 36.9 | 27.8 | 47.5 | 34.1 | 46.2 | 45.2 | 31.2 | 30.9 | 35.5 | 50.1
24 | CCOC(=O)c1[nH]ncc1C1CCCN(C(=O)CCS)C1 (stereo not drawn) |  | 16.6 | 45.8 | 40.5 | 40 | 46.5 | 34.6 |  | 28.1 | 30.4 | 30 | 66.4
25 | O=C(CCS)Nc1ccccc1N1CC2CCC1C2 (stereo not drawn) |  | 24.6 | 36.7 | 27.9 | 33 | 35.1 | 38 |  | 17.8 | 32.3 | 22.3 | 45.7
26 | CC(c1cc(Cl)ccc1Cl)n1nccc1NC(=O)CCS (stereo not drawn) |  | 21.8 | 15.8 | 17.9 | 11 | 17 | 32.4 |  | 12.1 | 14.1 | 9.5 | 30.4
27 | CNC(=O)N1CCC(NC(=O)CCS)CC1 |  | 9.8 | 25 | 34 | 20.3 | 28.6 | 10.5 |  | 20.7 | 33.2 | 27.9 | 43.1
28 | O=C(CCS)NC1CCN(C2CCOC2=O)CC1 (stereo not drawn) |  | 6.6 | 32.4 | 34 | 28.6 | 37.1 | 12.2 |  | 17.6 | 31.9 | 35.5 | 46.5
29 | O=C(CCS)NC1CCN(Cc2ccc(Cl)cc2)CC1 |  | 17 | 43.5 | 60.6 | 0 | 53.3 | 28.1 |  | 33.3 | 34.2 | 28.9 | 54.6
30 | O=C(NCCS)c1nc2ccccn2c1Br | 32.2 | 23.9 | 31.8 | 22.7 | 36.7 | 28.4 | 58.2 | 39.9 | 22.3 | 28.9 | 21.1 | 39.9
